PubChem BioAssay AID1159614 (National Center for Advancing Translational Sciences (NCATS), 2016)
In all, about 45,000 compounds went through this assay and about 65 (0.1%) were called active. Calls follow the shape of the dose curve; as a rule, active = well fitted activation curve with a large enough effect; inconclusive = small, poorly fitted or top-dose-only effect; inactive = no such curve, though single readings can be large or run the other way. The list shows a part of the results.

Molecular target: Galactocerebrosidase (Homo sapiens) (UniProt P54803)
Sequence of UniProt P54803 (P54803 whole entry, looked up): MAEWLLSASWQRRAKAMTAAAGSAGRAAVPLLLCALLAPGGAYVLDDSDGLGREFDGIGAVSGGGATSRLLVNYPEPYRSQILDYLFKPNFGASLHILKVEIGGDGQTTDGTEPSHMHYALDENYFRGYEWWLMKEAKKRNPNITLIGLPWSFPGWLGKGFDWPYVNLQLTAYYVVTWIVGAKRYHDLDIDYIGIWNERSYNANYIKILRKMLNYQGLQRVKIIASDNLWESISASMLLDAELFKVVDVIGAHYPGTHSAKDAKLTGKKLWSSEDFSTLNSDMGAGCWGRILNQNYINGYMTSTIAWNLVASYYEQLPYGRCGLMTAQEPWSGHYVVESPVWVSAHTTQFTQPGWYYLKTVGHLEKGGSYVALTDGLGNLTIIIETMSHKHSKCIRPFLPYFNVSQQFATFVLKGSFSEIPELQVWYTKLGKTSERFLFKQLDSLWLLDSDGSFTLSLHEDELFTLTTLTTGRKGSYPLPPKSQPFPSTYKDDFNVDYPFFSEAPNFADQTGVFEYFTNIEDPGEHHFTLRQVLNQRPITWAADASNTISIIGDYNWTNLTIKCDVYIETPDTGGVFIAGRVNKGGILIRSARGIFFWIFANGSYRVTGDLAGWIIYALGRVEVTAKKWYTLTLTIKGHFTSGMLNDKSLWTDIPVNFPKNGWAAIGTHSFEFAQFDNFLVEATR
Assay: A Novel Cell-Based Assay to Identify Small Molecules for B -Galactocerebrosidase; also: 0% is about no effect; nearly all actives have a fitted effect of over 65% in size
Conditions: 145M-Twi-hGALC-G270D cells (Twitcher mouse brain line with human GALC G270D), HMU-beta-Gal fluorescence, 48 h; series mostly up to 57.5 µM; activation: at the top concentration
Outline: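 Fluorogenic HMU-b-Gal hydrolysis (0.1 mM final, pH 5.2 citrate-phosphate with 1 mg/mL sodium taurocholate; carbonate stop buffer) measures mutant GALC activity after compound treatment of live 145M-Twi Twitcher brain cells stably carrying human GALC-G270D, with wild-type GALC line alongside; activation sought.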

activation, inactive:
Cc1ccc(N2CCN(C(=O)CCc3c(C)nc4c(c3C)c(=O)n(C)c(=O)n4C)CC2)c(C)c1 -7.62%, COc1cccc(CNC(=O)c2cc(-c3cccc(OC)c3)n[nH]2)c1 -13.2%, O=S(=O)(c1ccc2[nH]c3c(c2c1)CCCCC3)N1CCN(c2ccccc2)CC1 -15.4%, CCCSCCCNC(=O)CN1C(=O)COc2ccc(S(=O)(=O)N3CCC(C)CC3)cc21 -10.3%, Cc1cccc(C)c1NC(=O)c1oc2c(c1C)-c1nn(Cc3ccccc3)cc1CC2 -15.8%, COc1cc(OC)c(N(C)C(=O)c2nn(C)c3c2CSc2ccccc2-3)cc1Cl -9.06%, CCN(CC)CCCNC(=O)Cn1nc(N2CCN(c3ccccc3OC)CC2)ccc1=O 4.5%, CN1C(=O)Cc2cc(S(=O)(=O)CCC(=O)Nc3ccccc3)ccc21 -7.28%, CC(=O)C1=C(c2ccc(Cl)c(Cl)c2)N(C(C)=O)n2c(C)nnc2S1 -11.2%, CCCCOc1ccc(S(=O)(=O)N2CCN(c3ccccc3OCC)CC2)cc1 -8.73%, COc1ccc(Cl)cc1NC(=O)CN(C)S(=O)(=O)c1ccc(Br)s1 -9.33%, Cc1nc2c(C(=O)N(C)Cc3ccccc3)c[nH]n2c(=O)c1Cc1ccc(Cl)cc1 2.31%, Cc1ccc(Cl)cc1N1CCN(C(=O)c2ccc3c(c2)N(Cc2ccccc2F)C(=O)c2ccccc2S3(=O)=O)CC1 -12.9%, CCOc1ccccc1NC(=O)c1sc(-n2nc(C)c(CCC(C)C)c2C)nc1C -15.4%, O=C(NCC(c1ccccc1)c1ccccc1)c1nn(-c2ccccc2Cl)nc1CO -4.54%, C#CCN[C@@H]1CCc2ccccc21 -10.8%, O=C(Nc1cccc(Cl)c1)Nc1ccccc1OCc1cc(=O)n2ccccc2n1 -6.27%, Cc1cc(C)c2oc(-c3cccc(NC(=O)c4ccco4)c3)nc2c1 11.4%, CCC1CCCCN1CCCNC(=O)CN1C(=O)CSc2ccc(S(=O)(=O)N3CCC(C)CC3)cc21 (stereo unspecified) -22.2%, Cc1cc2c(c3oc(=O)c4ccccc4c13)CN(Cc1ccc(F)cc1)CO2 -21.4%, COCCCNC(=O)CCC(=O)N1Cc2ccccc2Oc2ncccc21 8.02%, COc1cccc(C(=O)Nc2c(C(=O)NC(C)(C)C)oc3ccccc23)c1 -14.6%, Cc1ccc(CCNC(=O)Cn2c(-c3cccs3)cc3cc(F)ccc32)cc1 -9.87%, CCc1cccc2sc(N3CCN(C(=O)c4cc5ccccc5cc4OC)CC3)nc12 -42.6%, Cc1ccc(CNC(=O)CN(c2ccc(Cl)cc2Cl)S(=O)(=O)c2ccccc2)cc1 -9.62%, Cc1ccc(CNC(=O)Cn2ccn(-c3ccc(C)c(C)c3)c(=O)c2=O)cc1 -4.66%, CN(C)c1ccc(CNC(=O)CN(C)S(=O)(=O)c2ccc3c(c2)c(=O)n(C)c(=O)n3C)cc1 -15.3%, C1COC(NC(C2CC2)C2CC2)=N1 -19.6%, Cc1ccc(-n2nc3c(N4CCCC(C(=O)NCCc5ccccc5)C4)nnc(C)c3c2C)cc1 (stereo unspecified) -8.01%, O=C(Cn1ncc2c(=O)oc3ccccc3c21)NCc1ccccc1Cl -0.548%, COc1ccc(CC(=O)NCc2ccc3c(c2)CCN3C(=O)c2ccc(C)cc2)cc1OC -46.1%, CCc1cccc(NC(=O)Cn2c(=O)n(CCc3ccc(OC)c(OC)c3)c(=O)c3ccccc32)c1 4.16%, COc1cccc(CNC(=O)CSc2c3c(nc4ccc(Cl)cc24)CCCC3)c1OC -8.69%, O=C(Cn1ncc2c3ccccc3n(Cc3ccccc3F)c2c1=O)NCCc1ccc(Cl)cc1 0.999%, CCOC(=O)c1c(C)[nH]c(C)c1S(=O)(=O)N1CCCC(C(=O)Nc2ccc(OC)c(Cl)c2)C1 (stereo unspecified) -9.36%, Cc1ccccc1Nc1nnc(-c2ccc(C)c(S(=O)(=O)N3CCOCC3)c2)c2ccccc12 -17.7%, COc1ccc(OC)c(NC(=O)Cn2cnc3c(oc4ccccc43)c2=O)c1 -4.92%, Cc1cccc(N2CCN(C(=O)C3CCN(S(=O)(=O)c4cccs4)CC3)CC2)c1C -25.8%, COc1ccc(CN2COc3ccc4c(-c5ccccc5)cc(=O)oc4c3C2)cc1 -25.3%, CC1=C(C(=O)Nc2ccc(C)cc2C)C(c2ccc(Cl)cc2)n2nc(C(=O)OC(C)C)nc2N1 (stereo unspecified) -12.3%, CCc1ccc(NC(=O)c2cc3sc(Cl)cc3n2C)cc1 -6.19%, O=C(Cn1cnc(S(=O)(=O)N2CCCC2)c1)Nc1ccc(OC(F)(F)F)cc1 -25.7%, Cc1ccc(C)c(CN2C(=O)c3ccccc3S(=O)c3ccc(C(=O)NCc4ccco4)cc32)c1 (stereo unspecified) -17%, Cc1ccc(NC(=O)Cn2c(=O)n(CCc3ccccc3)c(=O)c3c4c(sc32)CCCC4)cc1C -3.17%, Cc1cc(C)c(S(=O)(=O)Nc2cccc(-c3cn4ccccc4n3)c2)c(C)c1 -7.18%, Cc1ccc(NC(=O)Cn2cc(S(=O)(=O)NC(C)C)c(S(=O)(=O)NC(C)C)c2)cc1Cl -10.8%, COc1ccc(Cn2ccc3nc(C)c(C(=O)Nc4ccc(OC)cc4OC)cc3c2=O)cc1 -25.8%, O=C1Nc2cc(Cl)ccc2Oc2cc(Oc3ccccc3)ccc21 -6.98%, Cc1c(Cl)cccc1NC(=O)CSc1cc(-c2ccccc2)ncn1 -2.15%, Cc1ccc(NC(=O)C2CCN(c3nn4c(=O)cc(C)nc4s3)CC2)cc1 -13%, O=C(/C=C/c1ccco1)Nc1ccc(Cl)c(-c2nc3cc(Cl)ccc3o2)c1 -16.6%, COc1cccc(NC(=O)c2ccc(CNS(=O)(=O)c3ccc4c(c3)C(C)(C)C(=O)N4C)cc2)c1 -10.5%, Cc1ccc(-c2nnc(Nc3ccc(O)cc3)c3ccccc23)cc1S(=O)(=O)NCC1CCCO1 (stereo unspecified) -9.24%, CC(C)n1c(=O)c2oc3ccccc3c2n(Cc2ccccc2F)c1=O -8.62%, COC(=O)c1c(SCC(=O)Nc2ccccc2OC)[nH]c2ccccc2c1=O -11.8%, Cc1cc2ccccc2n1-c1ccc(C(=O)N2CCC(C(=O)NCc3ccc(F)cc3)CC2)s1 -16%, COc1ccc(Oc2nc3c(c(=O)n(Cc4ccccc4Cl)c(=O)n3C)n2C)cc1 -21.9%, O=C(C1CC1)N1CCc2cc(Br)cc(S(=O)(=O)N3CCN(c4ccccc4F)CC3)c21 -2.27%, COc1ccc(CNC(=O)Cn2ccc3cc(S(=O)(=O)N4CCCCCC4)ccc32)c(OC)c1 -7.26%, Cc1ccc(N2CC(NC(=O)/C=C\c3ccc4c(c3)OCO4)CC2=O)cc1 (stereo unspecified) -7.49%, Cc1ccc(CCNC(=O)c2ccc(CSCc3ccc(C)cc3)o2)cc1 -26.4%, CCOC(=O)c1ccc(NC(=O)c2cc3c(n(-c4ccc(C)cc4)c2=O)CC(C)(C)CC3=O)cc1 18%, Cn1c(C(=O)N2CCC(C(=O)NCCc3ccc(S(N)(=O)=O)cc3)CC2)cc2sccc21 -4.34%, COc1ccc(-c2nc3scc(CCNS(=O)(=O)c4cccc(C(C)=O)c4)n3n2)cc1 -1.86%, O=c1cc(CO)occ1O -14.7%, CN(C)c1cccc(C(=O)Nc2ccc(-c3nc4ccccc4s3)cc2)c1 -21.4%, CC1=C(c2ccc(Cl)cc2)S(=O)(=O)NC1=NCc1ccc(C)cc1 -10.9%, O=C(CSc1nc2c(oc3ccccc32)c(=O)[nH]1)Nc1cccc(Cl)c1 6.74%, CCOC(=O)c1cccc(NC(=O)CCNS(=O)(=O)c2cccc3nonc23)c1 -12.3%, CC12CN3CC(C)(CN(C1)C3c1ccc(OCc3ccccc3)cc1)C2=O (stereo unspecified) -5.24%, CCc1ccc(NC(=O)Cn2c(=O)ccc3cc(S(=O)(=O)N4CCCC4)ccc32)cc1 -11.4%, Cc1ccc(NC(=O)CSc2nnc(C)c(=O)[nH]2)cc1 4.16%, Cc1cccc(-n2ncc3c(Nc4c(C)cc(C)cc4C)ncnc32)c1 -15.8%, CCOCCCn1c(=N)c(C(=O)NC2CCCC2)cc2c(=O)n3cccc(C)c3nc21 -6.41%, Cc1nnc2c3ccccc3nc(N3CCN(c4cccc(Cl)c4)CC3)n12 0.995%, Oc1ccc(Nc2nc(-c3ccc(Cl)cc3)nc3ccccc23)cc1 -13.7%, Cc1noc(Cn2c(=O)c3ccccc3n(CC(=O)Nc3ccccc3C(F)(F)F)c2=O)n1 -13%, CCOC(=O)c1cccc(Nc2cc(C)nc(C)n2)c1 -16.8%, CCc1ccc(NC(=O)c2oc3c(c2C)-c2[nH]ncc2CC3)cc1 -8.98%, COc1ccccc1CNC(=O)CN1C(=O)CCCc2ccccc21 -12.6%, CCCCOc1ccc(C2c3c(oc4ccccc4c3=O)C(=O)N2c2nc(C)c(C(=O)OCC)s2)cc1OC (stereo unspecified) -15.1%, CCc1ccc(NC(=O)c2ccc3c(c2)c(C)c(C)n3Cc2ccccc2)cc1 4.95%, O=C(Nc1ccccc1Br)N1CCN2CCCCC2C1 (stereo unspecified) 2.87%, CCc1ccc(NC(=O)Cn2nnc(C(=O)Nc3cc(C)ccc3OC)c2N)cc1 14.6%, CC(=O)c1ccc(NC(=O)c2ccc(CN3C(=O)CCn4nc(C)cc43)cc2)cc1 -13.9%, COc1ccc(S(=O)(=O)NCCc2cn3ccsc3n2)cc1 -2.48%, Cc1ccc(S(=O)(=O)Nc2ccc3c(c2)c(C(=O)OC(C)C)c(C)n3S(=O)(=O)c2ccc(C)cc2)cc1 -20.1%, Cc1ccc(CCNC(=O)CN2CCN(Cc3ccc(Cl)cc3)C2=O)cc1 -11.7%, O=C(CCC1N=C2c3ccccc3N=C(SCc3cccc(F)c3)N2C1=O)NCc1ccc(F)cc1 (stereo unspecified) -23.3%, O=S(=O)(Nc1ccc(Br)cc1)c1ccc2nc(-c3ccccc3)[nH]c2c1 -11.6%, CCN(CC)CCNC(=O)Cn1ncc2c3ccccc3n(Cc3ccccc3C)c2c1=O -14.8%, COc1ccc(CCNC(=O)Cn2ccc3cc(S(=O)(=O)N4CCCCC4)ccc32)cc1OC -7.59%, COC(=O)c1ccccc1NC(=O)c1cc(=O)c2ccc(C)c(C)c2o1 -13%, Cn1nnnc1SCCCNCc1ccccc1OCc1ccccc1F -15.8%, COc1ccc(C(=O)c2cn(Cc3cccc(C)c3)c3cc4c(cc3c2=O)OCCO4)cc1OC -11.1%, CCc1ccc(NC(=O)CN2C(=O)CCSc3ccc(S(=O)(=O)N4CCCC4)cc32)cc1 0.72%
